Measurements: the RNAGym collection of RNA variant scans (doi:10.7554/elife.90254)
The source gives no read counts; variants with many changes may rest on few reads.

B1: LINE1-mini (parent)
chain: GGCAGAGCUCAACACAGCGUGGCAAAGUGGCUGUGGCUAGACUGCC

Variants of: B1
Assay: self-cleavage, relative activity (ratio to wild type); higher = more cleavage; in vitro, sequencing; the parent is a self-cleaving ribozyme
In the case of C3U G5C A12U A25G, the self-cleavage is reported as 0.01. C3U A4U A11C C13A G44U gave a self-cleavage of 0.02. In the case of C3U G5U C10A U32G, the self-cleavage is reported as 0.02. In the case of C3U A4C C13U C31G, the self-cleavage is reported as 0.07. C3U C18U A25G gave a self-cleavage of 0.05. With C3U G21C G33C C37A the self-cleavage was 0.13. C3U C10G G44U gave a self-cleavage of 0.01. Variant C3U A4C U9A C18G A26U G33U has a self-cleavage of 0.08. Variant C3U G21A U38C has a self-cleavage of 2.2. C3U A4U C18A U20G G36C C42A showed a self-cleavage of 0.03. Variant C3U C8G G19U U28G has a self-cleavage of 0.04. C3U A6C U20A G27A gave a self-cleavage of 0.49. Work on C3U C10U G17A G21U G40U U43A yielded a self-cleavage of 0.02. C3U G21U U38G A41G gave a self-cleavage of 0.02. Variant C3U A6C C31A has a self-cleavage of 0.08. Variant C3U A4U C10A G19A G21U C23A U32A has a self-cleavage of 0.01. With C3U A16C G30C U32G G35U U38G the self-cleavage was 0.17. C3U A24C C45G showed a self-cleavage of 0.77. With C3U A11C A14U A24C G33U the self-cleavage was 0.03. For C3G U20C G33U A41U, the self-cleavage was 0.27. C3U A11C G17U G19C A26U A39G U43C gave a self-cleavage of 0.01. C3U G19A G36U gave a self-cleavage of 0.04. Variant C3U G29A U38G has a self-cleavage of 0.03. Variant C3U A11U G22C has a self-cleavage of 0.03. With C3U U28A G29U C31U G33C U34A the self-cleavage was 0.05. Variant C3U U9A A14U C18A U20A C31A has a self-cleavage of 0.04. In the case of C3U A16C G21U A26C, the self-cleavage is reported as 0.05. With C3U C23U C46U the self-cleavage was 0.2. With C3G U9A U28G C31G the self-cleavage was 0.32. For C3U U20G C42A, the self-cleavage was 0.06. With C3U U20G C42U the self-cleavage was 0.03. Variant C3U G21U U28A G30A G44U has a self-cleavage of 0.12. C3U G7C C31A gave a self-cleavage of 0.01. With C3U A6C G22A C23U the self-cleavage was 0.09. C3U G5C G27U G29C U32G showed a self-cleavage of 0.07. In the case of C3U G5U G22U C46A, the self-cleavage is reported as 0.3. C3U A16C A24G gave a self-cleavage of 0.02. C3U C13U A24U A25U C45G gave a self-cleavage of 0.2. Variant C3U C8U G21A A25U G33A has a self-cleavage of 0.29. For C3U A6C U20G, the self-cleavage was 0.33. Work on C3U A4G A24U yielded a self-cleavage of 0.15. Work on C3U G7U A14U G19U U28A yielded a self-cleavage of 0.11. Work on C3U C23G A24U G27A G44U C46U yielded a self-cleavage of 0.04. For C3U A6G G22C C31U G36U, the self-cleavage was 0.02. With C3U G7U C10U C23U the self-cleavage was 0.03. With C3U G22C G40A the self-cleavage was 0.04. For C3U A4U A24U U34C, the self-cleavage was 0.01. C3U G5C A6G C31U showed a self-cleavage of 0.03. C3U C10U A16G gave a self-cleavage of 0.08. In the case of C3U C8G C15A A16G, the self-cleavage is reported as 0.23. In the case of C3U C8G A14C G19A U20G G33U A41U C42A, the self-cleavage is reported as 0.02. In the case of C3U C13G C31A C42U C46U, the self-cleavage is reported as 0.13. With C3U G19U U43A the self-cleavage was 0.13. For C3U A24G G44U C45G, the self-cleavage was 0.12. C3U A14G G33U U34A gave a self-cleavage of 0.11. Work on C3U G7A A39C yielded a self-cleavage of 0.22. C3U C10U G21U C31G gave a self-cleavage of 0.02. In the case of C3U C8A G19A, the self-cleavage is reported as 0.37. Variant C3U C8A G19U has a self-cleavage of 0.05. In the case of C3U A6C G17A A24U G35A G36U, the self-cleavage is reported as 0.03. C3U U9G G19C G40A C46G showed a self-cleavage of 0.02. Work on C3G U9A G17A yielded a self-cleavage of 0.18. C3U G7A U9C U28G G33C U34C G40A showed a self-cleavage of 0.02. Work on C3U A4U A11G C18G G19C C31A yielded a self-cleavage of 0.02. Work on C3U C10A C23A yielded a self-cleavage of 0.18. Variant C3U A12C C13U C31A has a self-cleavage of 0. Work on C3U G5C U9A A39C C45U yielded a self-cleavage of 0.1. C3U G35U G40A showed a self-cleavage of 0.11. C3U G5U A6G A41G gave a self-cleavage of 0.06. C3G G21U G27U G29A showed a self-cleavage of 0.16. C3U C18A G21A A25U showed a self-cleavage of 0.14. In the case of C3U G7U C8G, the self-cleavage is reported as 0.06. C3U A16G U20G G29A U32G G33C C37A U43G gave a self-cleavage of 0.01. Work on C3U A11C C15U U20G A24U yielded a self-cleavage of 0.01. Work on C3G U9C C13U A16C G29C yielded a self-cleavage of 0.01. Variant C3U G5C C8G A16C A26G G27U has a self-cleavage of 0.13. Work on C3U A12U G36U C37A yielded a self-cleavage of 0.05. For C3U U9C A14U U34C, the self-cleavage was 0.02. Variant C3U G5C G29U C31U U32C has a self-cleavage of 0.05. With C3U U20A G29U C31U U32A C42G the self-cleavage was 0.02. Work on C3U C10A A12G yielded a self-cleavage of 0.03. C3U C10U A14G showed a self-cleavage of 0.04. C3U C15A C37U showed a self-cleavage of 0.05. In the case of C3U A6G G7A C8G A24C G40A, the self-cleavage is reported as 0.44. C3U G22A U32C showed a self-cleavage of 0.32. Work on C3U G30C C46G yielded a self-cleavage of 0.24. With C3U G7U G17A the self-cleavage was 0.16. C3U C8A G22A A24U G35C showed a self-cleavage of 0.06. C3U G5A A25U G36A A39G showed a self-cleavage of 0.09. Variant C3U U9G U38G has a self-cleavage of 0.15. C3U G5U G27A showed a self-cleavage of 0.03. Work on C3U G19A G27C G33A C37G yielded a self-cleavage of 0.08. In the case of C3G G33A C42U C46A, the self-cleavage is reported as 0.09. C3G U9C A25C G27A showed a self-cleavage of 0.02. C3U C10U C18U A24C showed a self-cleavage of 0.1. Work on C3U G5C U20A G21U C45G C46G yielded a self-cleavage of 0.02. Variant C3U A24C A26U G27C C46A has a self-cleavage of 0.08. Work on C3U A24U A25C yielded a self-cleavage of 0.26. With C3U A24C A26G G35U A39U the self-cleavage was 0.03. In the case of C3U G19A A26G G30A, the self-cleavage is reported as 0.45. C3U G5U G7A U28G G29C C46A showed a self-cleavage of 0.03. C3U C8G G27A G29U U43C gave a self-cleavage of 0.02. For C3U G21C G22A C23A G35C U43A, the self-cleavage was 0.06. For C3U G5C C18U G19C, the self-cleavage was 0.04. For C3G G30C C37A C46A, the self-cleavage was 0.83. C3U C18A C23A G30C A39G A41G U43A gave a self-cleavage of 0.02. Variant C3U A6G G17C G21U C45G has a self-cleavage of 0.03. For C3U G33A C45G, the self-cleavage was 0.11. C3U G29A G30A G33U gave a self-cleavage of 0.14. Work on C3U C15G A41C C46U yielded a self-cleavage of 0. In the case of C3U C13U G40A U43C, the self-cleavage is reported as 0.03. For C3U A6G C18G G22U C42U C46A, the self-cleavage was 0.18. For C3U C18G C46U, the self-cleavage was 0.07. In the case of C3U G29A C31A, the self-cleavage is reported as 0.15. C3U G7A G35U gave a self-cleavage of 0.54. C3U A6C G22C C23A A26U U28G U32G C46U showed a self-cleavage of 0.01. C3U C8A C23G A24G G44A showed a self-cleavage of 0.04. With C3U C8G A25C G40C U43G the self-cleavage was 0.46. C3U G7A G19C G30A C37A A41C showed a self-cleavage of 0.21. Variant C3U G22A C31A C45U has a self-cleavage of 0.1. Variant C3U U9A A25G U34G has a self-cleavage of 0.15. In the case of C3U A6U U9C A12U, the self-cleavage is reported as 0.02. Variant C3U C10A A26U G33U has a self-cleavage of 0.04. Work on C3U G5C A6C C10U C31G U34A yielded a self-cleavage of 0.03. With C3U G35C C46U the self-cleavage was 0.02. For C3U C8A G22U A25G G33A A41U, the self-cleavage was 0.48. C3U C15U G17C gave a self-cleavage of 0.02. Variant C3U A11C C18G G29A has a self-cleavage of 0.04. Work on C3G G27U G30U yielded a self-cleavage of 0.54. Work on C3U U28C A41G yielded a self-cleavage of 0.06. With C3U A4U G7U U9G C18G G27C G29U G33C G44A the self-cleavage was 0.2. In the case of C3U G5A G17A G35U G36A, the self-cleavage is reported as 0.09. C3U A26U G35C C45A showed a self-cleavage of 0.04. C3U C10A A12U C23U G27U gave a self-cleavage of 0.02. C3G U20G A25U G44C gave a self-cleavage of 0.78. For C3U G7C G17C G36A C37G, the self-cleavage was 0.08. Work on C3U G7A G19U G21A G30U yielded a self-cleavage of 0.2. For C3U A24G U38G, the self-cleavage was 0.02. Work on C3U C8A C10A G27U G30U yielded a self-cleavage of 0.03. Work on C3G G21U A24G yielded a self-cleavage of 0.25. In the case of C3U G5C A11U G22U C31A, the self-cleavage is reported as 0.04. C3U C8U U9C U32G U34G C37A U38G showed a self-cleavage of 0.02. Variant C3U G19U G33A C46U has a self-cleavage of 0.05. C3U A4U U9G G22A G29C showed a self-cleavage of 0.03. With C3U G7A A25C U38A the self-cleavage was 0.07. Work on C3U G5C G29C yielded a self-cleavage of 0.05. In the case of C3U A4U C13A U32G G36A, the self-cleavage is reported as 0.07. C3U A4C G7C C13G G19U A26G showed a self-cleavage of 0.05. C3U C15U G44U showed a self-cleavage of 0.04. Work on C3U A14C C23U A24U U38A yielded a self-cleavage of 0.17. For C3U C23U C31A C42G, the self-cleavage was 0.06. In the case of C3U U20A G30C, the self-cleavage is reported as 0.17. C3G G29A U38C showed a self-cleavage of 0.31. C3U A12U G17U showed a self-cleavage of 0.05. Variant C3G U9G G21U C46G has a self-cleavage of 0.16. With C3U A14G G29U the self-cleavage was 0.38. Work on C3U C13A G21A G30U yielded a self-cleavage of 0.22. In the case of C3G G30U C37U, the self-cleavage is reported as 2.33. For C3U A11G A24C A25C G29A, the self-cleavage was 0.02. Work on C3U C8G U9C C23U U38A yielded a self-cleavage of 0.01. C3U A6U A16G gave a self-cleavage of 0.03. Work on C3U A14G A26U yielded a self-cleavage of 0.24. C3U A6G U20A C23U showed a self-cleavage of 0.03. C3G U9G C23U G27C showed a self-cleavage of 0.98. Variant C3U C15A G36U has a self-cleavage of 0.09. In the case of C3U C18A U28G, the self-cleavage is reported as 0.29. C3U C10A G27C G36U gave a self-cleavage of 0.02.
